Reference: PubChem BioAssay AID2147 (National Center for Advancing Translational Sciences (NCATS), 2009)
In all, about 230,000 compounds went through this assay and about 3,600 (1.6%) were called active. The inconclusive results got no clear call from the source; some entries with a clear call stand among them for comparison. Calls come from the whole dose curve; as a rule, active = well fitted inhibition curve with a large enough effect (not every such curve was filed as active); inconclusive = small, poorly fitted or top-dose-only effect, or another doubt; inactive = no such curve, though single readings can be large or run the other way. A potency beside an inconclusive call is a rough fit, not a confirmed value.

Target: Lysine-specific demethylase 4E (Homo sapiens) (UniProt B2RXH2)
UniProt B2RXH2, sequence (B2RXH2 whole entry, looked up, the tested form may be a part): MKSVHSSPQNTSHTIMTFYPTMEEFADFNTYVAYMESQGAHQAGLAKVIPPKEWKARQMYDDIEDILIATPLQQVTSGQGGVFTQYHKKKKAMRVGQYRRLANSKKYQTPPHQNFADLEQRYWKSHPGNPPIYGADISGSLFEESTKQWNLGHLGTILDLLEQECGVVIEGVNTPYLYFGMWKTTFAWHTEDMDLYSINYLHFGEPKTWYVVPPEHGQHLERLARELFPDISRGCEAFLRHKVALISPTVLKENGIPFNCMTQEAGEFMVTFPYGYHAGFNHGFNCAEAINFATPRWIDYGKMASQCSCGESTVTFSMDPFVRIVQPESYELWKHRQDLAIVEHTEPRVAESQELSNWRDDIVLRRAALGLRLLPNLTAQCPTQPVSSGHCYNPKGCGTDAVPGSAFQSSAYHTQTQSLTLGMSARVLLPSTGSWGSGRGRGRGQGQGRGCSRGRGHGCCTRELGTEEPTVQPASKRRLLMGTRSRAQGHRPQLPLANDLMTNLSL
Assay: qHTS Assay for Inhibitors of Human Jumonji Domain Containing 2E (JMJD2E)
Settings: JMJD2E catalytic domain, FDH-coupled NADH fluorescence (FDH is formaldehyde dehydrogenase); series mostly up to 57.1 µM; activity change, negative = inhibition: at the top concentration
Note: nearly all actives have a fitted effect of over 50% in size.
Potency is the fitted concentration of half-maximal effect; tags give direction and shape of the fitted curve.
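Throughout, for activity change, negative = inhibition: 0% = wells with enzyme and -100% = buffer wells without enzyme.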

Row | Compound | Potency | activity change, negative = inhibition
1 | CC(=O)N1CCC2(CC1)C/C(=N\NC(=S)Nc1ccccc1F)c1cc(O)ccc1O2 | inconclusive: 28.2 µM [inhibitor, single point] | 
2 | O=C1C(=O)c2ccc(-c3ccccc3)cc2-c2ccccc21 |  | inactive: -1.3%
3 | N#CCC(=O)N/N=C/c1cn(Cc2ccccc2C#N)c2ccccc12 |  | inactive: -3.23%
4 | O=C(O)c1cc(NN=Nc2ccc(Br)cc2)cc([N+](=O)[O-])c1 | inconclusive: 39.8 µM [inhibitor, single point] | 
5 | Cc1c(N2C(=O)/C(=C/C3CC=CCC3)SC2=S)c(=O)n(-c2ccccc2)n1C (centres undefined) | inconclusive: 10 µM [inhibitor, partial curve] | 
6 | O=C(NCc1csc(-c2ccccc2)n1)c1cc(F)cc2c1OCOC2 | inconclusive: 22.4 µM [inhibitor, single point] | 
7 | O=C(CNS(=O)(=O)c1cccc2nsnc12)NCc1ccc(Cl)cc1 | inconclusive: 35.5 µM [inhibitor, single point] | 
8 | CC(C)(C)C1CCC2(CC1)NC(=S)N(c1ccccc1)N2 (centres undefined) | inconclusive: 25.1 µM [inhibitor, single point] | 
9 | Oc1ccccc1-c1nnc(-c2ccc(C(F)(F)F)cc2)o1 | inconclusive: 31.6 µM [inhibitor, partial curve] | 
10 | C=CCN(Cc1nc(-c2cc(OC)c3c(c2)OCO3)oc1C)C1CCS(=O)(=O)C1 (centres undefined) | inconclusive: 39.8 µM [inhibitor, single point] | 
11 | C=CCOC(=O)C1=C(C)NC(C)=C(C(=O)OCC=C)C1c1cn(-c2ccccc2)nc1-c1ccco1 | inconclusive: 35.5 µM [inhibitor, single point] | 
12 | O=C(NCCN1CCNCC1)c1ccccn1 | inconclusive: 39.8 µM [inhibitor, single point] | 
13 | COc1ccc(CCN2CC(C(=O)Nc3ccc4c(c3)OCO4)CC2=O)cc1OC (centres undefined) |  | inactive: -2.4%
14 | C=CCNC(=O)/C(C#N)=C\c1cc(Cl)c(OCC)c(OC)c1 | inconclusive: 39.8 µM [inhibitor, single point] | 
15 | CCCn1nc(NC(=O)c2cccs2)c2cc3cc(C)ccc3nc21 | inconclusive: 28.2 µM [inhibitor, partial curve] | 
16 | CCN1CCCC1Cn1c(-c2ccccc2)nc2c(NC3CCCCC3)nc(C)nc21 (centres undefined) | inconclusive: 28.2 µM [inhibitor, partial curve] | 
17 | Cc1ccc(-c2cc(C(F)F)n3ncc(C(=O)N4CCN(c5ccccn5)CC4)c3n2)cc1 | inconclusive: 39.8 µM [inhibitor, single point] | 
18 | CCOC(=O)c1cc2ccccc2n1CCN(CC)CC | inconclusive: 39.8 µM [inhibitor, single point] | 
19 | CCOc1ccc(OCC)c(NC(=O)Nc2ccc3c(c2)N(C)C(=O)CS3)c1 |  | inactive: -4.04%
20 | O=C(c1ccc(F)cc1F)N1CCN(c2n[nH]c(=O)[nH]c2=O)CC1 |  | inactive: -1.44%
21 | O=C(Nc1ccc(NC(=O)c2ccccc2)nc1)c1ccncc1 | inconclusive: 39.8 µM [inhibitor, single point] | 
22 | Cc1cc(NC(=O)c2cc(-c3cccs3)nc3ccccc23)no1 | inconclusive: 28.2 µM [inhibitor, partial curve] | 
23 | CCCc1ccc(/C=C2\C(=O)c3ccccc3C(O)=C2C(=O)OCC)cc1 | active: 17.8 µM | 
24 | C=CCNC(=S)NN=C1CCCCCCC1 |  | inactive: -13.3%
25 | Oc1ccc(Nc2nnc(-c3ccc(O)cc3)c3ccccc23)cc1 |  | inactive: -6.65%

Row | Compound | Potency | activity change, negative = inhibition
26 | N#C/C(=C\C1CC2C=CC1C2)c1nc2ccccc2[nH]1 (centres undefined) | inconclusive: 15.8 µM [inhibitor, partial curve] | 
27 | CCOc1ccc(NC(=S)NC(=O)/C=C/c2ccc(C)cc2)c([N+](=O)[O-])c1 |  | inactive: -3.87%
28 | CC1CCC(=C(C#N)c2nc(-c3cc4ccccc4oc3=O)cs2)CC1 (centres undefined) | inconclusive: 5.62 µM [inhibitor, full curve] | 
29 | Cc1ccc(/C=N/n2c(-c3ccc(Cl)cc3)n[nH]c2=S)s1 |  | inactive: -0.0207%
30 | CCCCN(C(=O)CNC(=O)c1cccs1)C(C(=O)NC1CCCC1)c1ccncc1 (centres undefined) | inconclusive: 35.5 µM [inhibitor, single point] | 
31 | O=C(O)COc1ccccc1/C=N/NC(=O)c1cc(-c2ccc(Cl)cc2)nc2ccccc12 |  | inactive: -3.4%
32 | COc1ccc(CC(=O)N/N=C/c2ccc(-c3cccc(C(=O)O)c3)o2)cc1OC | inconclusive: 25.1 µM [inhibitor, partial curve] | 
33 | COc1ccc(C)cc1NC(=O)c1cc2ccccc2cc1OCC(=O)NCc1ccco1 | inconclusive: 3.16 µM [inhibitor, partial curve] | 
34 | CC1CCC(C(C)C)C(OP(=O)(c2ccccc2)C(O)c2ccncc2)C1 (centres undefined) | active: 17.8 µM | 
35 | CNC(=O)c1c[nH]n2c(=O)c(Cc3ccccc3F)c(C)nc12 | inconclusive: 31.6 µM [inhibitor, single point] | 
36 | CCCc1cc2c(-c3ccccc3)cc(=O)oc2cc1OCc1ccc(C(=O)O)o1 | inconclusive: 25.1 µM [inhibitor, partial curve] | 
37 | O=C(c1ccco1)N1CCN(c2ncnc3scc(-c4cccs4)c23)CC1 |  | inactive: -4.28%
38 | Cc1nccc(-c2sc(-c3cccs3)nc2C)n1 | inconclusive: 31.6 µM [inhibitor, partial curve] | 
39 | Cc1ccc(NC(=O)Nc2ccc(F)c(Cl)c2)cc1 |  | inactive: -5.67%
40 | O=C(O)CCC(=O)Nc1nc2nc(-c3ccccc3)cc(-c3ccccc3)n2n1 | inconclusive: 31.6 µM [inhibitor, partial curve] | 
41 | COc1ccc(N(Cc2cc3ccccc3[nH]c2=O)S(C)(=O)=O)cc1 | inconclusive: 39.8 µM [inhibitor, single point] | 
42 | COc1ccc2oc(=O)cc(C)c2c1 | inconclusive: 31.6 µM [inhibitor, partial curve] | 
43 | COc1ccc(/C(C)=N/Nc2ccccc2Cl)c(O)c1 |  | inactive: -27.5%
44 | Cc1ccc(-c2noc(CCC(=O)N3CCCC3)n2)cc1 |  | inactive: 1.1%
45 | O=S(=O)(NCc1ccc(Cl)cc1)c1cccc2cccnc12 |  | inactive: 5.81%
46 | O=C(CCN1C(=O)/C(=C/C=C/c2ccccc2)SC1=S)Nc1nc2ccccc2s1 |  | inactive: 16.4%
47 | O=C(OCC(=O)N1CCCCCC1)c1ccc([N+](=O)[O-])cc1Cl |  | inactive: -3.16%
48 | C[N+](C)(C)CCNC(=O)c1c(O)c2c([nH]c1=O)CCCC2 | inconclusive: 25.1 µM [inhibitor, partial curve] | 
49 | Cn1c(-c2ccc(F)cc2)cnc1NCc1ccc(F)cc1 | inconclusive: 39.8 µM [inhibitor, single point] | 
50 | CN1CCN(Cc2nc3c(c(=O)n(C)c(=O)n3C)n2CCCc2ccccc2)CC1 |  | inactive: -2.14%

Row | Compound | Potency | activity change, negative = inhibition
51 | Cc1nc(-c2ccc(C(=O)O)cc2)cs1 | inconclusive: 39.8 µM [inhibitor, single point] | 
52 | O=Cc1ccc(-n2cccn2)cc1 | active: 14.1 µM | 
53 | CC1(C#CC[N+]2(C)CCCCC2)CCC2C(O1)c1ccccc1OC2(C)C (centres undefined) | inconclusive: 20 µM [inhibitor, single point] | 
54 | Cc1nc2ccc(Nc3ccncc3)cc2s1 | inconclusive: 39.8 µM [inhibitor, single point] | 
55 | Cc1ccc(C2=CC(c3ccc(N(C)C)cc3)n3nnnc3N2)cc1 (centres undefined) | inconclusive: 35.5 µM [inhibitor, single point] | 
56 | CC1=C([N+](=O)[O-])C(c2ccccc2)C2=C(N1)c1ccccc1C2=O (centres undefined) |  | inactive: -5.08%
57 | Cc1ccc(C(=O)CC2(O)C(=O)N(CN3CCOCC3)c3ccccc32)cc1 (centres undefined) |  | inactive: 5.05%
58 | COc1ccc(-c2cc(C)nc(SCc3cccc(C(=O)O)c3)n2)cc1 | inconclusive: 39.8 µM [inhibitor, single point] | 
59 | CCOc1ccc(N(CC(=O)O)S(=O)(=O)c2cccnc2)cc1 |  | inactive: 3.16%
60 | O=C(Nc1ccc(CN2CCOCC2)cc1)c1ccc(-c2ccc(Cl)cc2Cl)o1 | inconclusive: 35.5 µM [inhibitor, single point] | 
61 | Cc1ccc(-n2c(-c3nn(C)cc3Cl)n[nH]c2=S)cc1 | inconclusive: 39.8 µM [inhibitor, single point] | 
62 | Cc1ccccc1NC(=O)CSc1nc(N)c2c3c(sc2n1)CSC(C)(C)C3 |  | inactive: 18.5%
63 | COc1ccccc1-n1cnc2cc(NCc3ccccc3O)ccc21 | inconclusive: 39.8 µM [inhibitor, single point] | 
64 | COC(=O)CN1C(=O)C(O)(CC(=O)c2ccc(C)cc2)c2cc(Br)ccc21 (centres undefined) |  | inactive: -6.92%
65 | c1ccc2c3c([nH]c2c1)C(C1CCCCC1)N(Cc1ncc[nH]1)CC3 (centres undefined) |  | inactive: -21.3%
66 | CCC(=O)N(C)CCc1cc2c(c(OC)c1/C=N/Nc1ccc(C(=O)O)cc1)OCO2 | inconclusive: 39.8 µM [inhibitor, single point] | 
67 | Cc1cc(=O)[nH]c2c3ccccc3nn12 | inconclusive: 22.4 µM [inhibitor, partial curve] | 
68 | CC1CC2C(C(O)C[C@]3(C)C2CC[C@]3(O)C(=O)CO)[C@]2(C)C=CC(=O)C=C12 (some centres undefined) |  | inactive: 1.57%
69 | COc1ccc(N2CCCC2=N)c(OC)c1 | inconclusive: 39.8 µM [inhibitor, single point] | 
70 | COCCn1nnnc1C(c1cc2c(C)cc(C)cc2[nH]c1=O)N1CCCCCC1 (centres undefined) | inconclusive: 35.5 µM [inhibitor, single point] | 
71 | CCOC(=O)c1cnc2ccccc2c1Nc1ccc(C(=O)O)cc1 |  | inactive: 10.8%
72 | C=CCNC(=O)c1ccc(-c2nc(-c3ccccc3)cs2)cc1 | inconclusive: 14.1 µM [inhibitor, partial curve] | 
73 | COc1ccc(Br)cc1/C=N/NC(=O)c1ccc(COc2ccc3c(c2)CCC3)o1 | inconclusive: 20 µM [inhibitor, partial curve] | 
74 | CC(CNc1ccccc1O)C(=O)O (centres undefined) | inconclusive: 1.78 µM [inhibitor, partial curve] | 
